# The supplement of paper PMC7826260
# This is one part of the list. The data describe in vitro nicking of single-stranded DNA by Rep domains for 1 h at 37 °C with 3 µM enzyme; only the middle of the 90-letter strands is printed. Values are log2 of uncut reads against the no-enzyme pool; the lower, the more was cut; hits are not called. Because reads are shares of a total, they shift together, so uncut sequences can rise above 0 when many others are cut.
# What was measured:
# Assay in all cases: uncleaved DNA left, log2 of reads against the no-enzyme library (log2 ratio); higher = less cleavage (more negative = more Rep cleavage of the k-mer); sequences stand for … in CTCGTCCG…ACCGGAGA
# [1] = system: T1, Rep nickase domain of Muscovy duck circovirus
# T1 sequence (Rep 1-111, printed without the tag): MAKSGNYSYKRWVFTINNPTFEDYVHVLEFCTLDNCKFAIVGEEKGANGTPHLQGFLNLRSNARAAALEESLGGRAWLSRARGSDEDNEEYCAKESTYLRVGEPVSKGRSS
# Description: (§1)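 A pool of 90-nt single-stranded DNAs with seven random bases just before the constant AC of the nick site (name = the seven bases) was cut by 3 µM recombinant His6-SUMO-tagged Rep nickase domain (300 nM DNA, 50 mM HEPES pH 8.0, 50 mM NaCl, 1 mM MnCl2, 1 h, 37 °C, three replicates). Uncut DNA was amplified and sequenced.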
# [2] = system: T2, Rep nickase domain of banana bunchy top virus
# T2 sequence (Rep 1-94, printed without the tag): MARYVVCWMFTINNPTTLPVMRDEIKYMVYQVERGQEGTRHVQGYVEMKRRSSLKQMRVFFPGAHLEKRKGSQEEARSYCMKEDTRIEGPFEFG
# Description: as §1
# [3] = system: T3, Rep nickase domain of cabbage leaf curl virus
# T3 sequence (Rep 1-116, printed without the tag): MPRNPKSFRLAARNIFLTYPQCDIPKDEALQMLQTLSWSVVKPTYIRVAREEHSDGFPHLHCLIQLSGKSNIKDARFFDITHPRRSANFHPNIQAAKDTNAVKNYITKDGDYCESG
# Description: as §1
# [4] = system: T4, Rep nickase domain of chickpea chlorotic dwarf virus
# T4 sequence (Rep 1-124, printed without the tag): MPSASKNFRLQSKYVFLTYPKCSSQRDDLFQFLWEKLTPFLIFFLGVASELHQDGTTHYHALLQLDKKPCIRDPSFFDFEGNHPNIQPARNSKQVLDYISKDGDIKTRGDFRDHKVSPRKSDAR
# Description: as §1
# [5] = system: T5, Rep nickase domain of faba bean necrotic yellows virus
# T5 sequence (Rep 1-98, printed without the tag): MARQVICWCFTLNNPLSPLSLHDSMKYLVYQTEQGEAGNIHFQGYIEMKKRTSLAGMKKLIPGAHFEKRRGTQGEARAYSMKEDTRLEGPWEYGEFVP
# Description: as §1
# [6] = system: T6, Rep nickase domain of maize striate mosaic virus
# T6 sequence (Rep 1-117, printed without the tag): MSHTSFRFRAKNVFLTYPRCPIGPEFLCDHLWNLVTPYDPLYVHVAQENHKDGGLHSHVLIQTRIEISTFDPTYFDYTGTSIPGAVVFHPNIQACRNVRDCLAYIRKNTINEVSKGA
# Description: as §1
# [7] = system: T7, Rep nickase domain of porcine circovirus 2
# T7 sequence (Rep 2-116, printed without the tag): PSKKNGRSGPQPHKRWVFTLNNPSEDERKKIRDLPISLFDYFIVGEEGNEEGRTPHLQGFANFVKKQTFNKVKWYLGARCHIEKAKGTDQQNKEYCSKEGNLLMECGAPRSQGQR
# Description: as §1
# [8] = system: T8, Rep nickase domain of tomato yellow leaf curl virus
# T8 sequence (Rep 1-136, printed without the tag): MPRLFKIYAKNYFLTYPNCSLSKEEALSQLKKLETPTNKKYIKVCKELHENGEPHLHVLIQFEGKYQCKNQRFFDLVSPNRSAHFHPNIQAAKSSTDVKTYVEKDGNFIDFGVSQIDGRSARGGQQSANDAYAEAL
# Description: as §1
# [9] = system: T9, Rep nickase domain of wheat dwarf virus
# T9 sequence (Rep 1-137, printed without the tag): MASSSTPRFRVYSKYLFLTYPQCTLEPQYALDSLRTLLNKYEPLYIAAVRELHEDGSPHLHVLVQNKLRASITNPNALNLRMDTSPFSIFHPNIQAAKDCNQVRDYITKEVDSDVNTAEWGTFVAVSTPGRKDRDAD
# Description: as §1
Sequence,uncleaved DNA left (log2) [1],uncleaved DNA left (log2) [2],uncleaved DNA left (log2) [3],uncleaved DNA left (log2) [4],uncleaved DNA left (log2) [5],uncleaved DNA left (log2) [6],uncleaved DNA left (log2) [7],uncleaved DNA left (log2) [8],uncleaved DNA left (log2) [9]
CAGCGGG,0.208,0.0874,-0.134,-0.152,-0.0135,-0.331,0.15,-0.035,-0.0473
AGGGAGG,0.134,0.0632,-0.00765,0.545,0.0566,0.513,0.176,-0.0148,0.00417
CGTTGCT,-0.282,-0.216,-0.923,-0.973,-0.115,-1.12,-0.318,-0.112,-0.364
TCCAGCG,0.143,-0.00341,-0.618,0.613,0.0358,-0.655,0.17,0.0147,0.043
ATCCTTC,0.0406,0.0178,-0.0129,-0.265,0.223,-0.723,0.0837,-0.0291,-0.0911
TCGGATG,-0.0242,-0.0828,-0.0324,0.465,-0.149,0.871,0.0393,-0.152,-0.178
AGGAGTT,-0.00288,0.0446,0.162,0.557,-0.0595,1.36,-0.106,-0.0778,-0.0389
AACCACT,0.0578,-0.00672,-0.571,-2.97,0.0627,-0.701,-2.18,-0.0408,-0.0553
AGGGCGA,-0.0267,-0.0618,-0.436,-0.241,-0.0642,-0.58,0.155,-0.0894,-0.186
AAACTAT,-0.000231,-0.0868,-0.451,-2.38,0.0316,-0.391,-0.189,-0.0132,-0.13
GTAACCC,-0.114,0.00495,0.205,0.491,0.00783,1.31,-0.326,-0.00432,-0.0521
GACACCA,-0.00744,0.0487,0.327,-0.659,0.0403,0.776,-0.0326,-0.0148,0.0617
GCGGTGC,-0.0108,-0.0415,-0.0353,0.357,0.0131,-0.266,0.0615,-0.0362,-0.116
GCTATGG,0.0302,-0.0696,-0.0468,0.355,-0.0451,-0.319,0.175,-0.118,-0.0387
CTTACAG,0.0648,0.0577,-0.963,-2.12,0.0509,-1.07,0.152,0.122,-0.083
CCGATAA,-0.0598,-0.165,-0.262,-0.319,-0.0585,-0.615,-0.148,-0.14,-0.108
ATCAGGA,0.0846,0.0547,0.0643,0.458,0.0613,-0.239,0.206,-0.0285,-0.0791
CAGGTAA,-0.192,0.0279,0.103,0.628,-0.107,0.909,0.114,-0.0684,0.0408
AAGAGCC,0.0209,-0.0945,0.00527,0.0836,0.0515,-0.422,-0.0517,-0.121,-0.0183
ACAGGCC,-0.098,-0.0181,-0.218,-0.158,0.0593,-0.723,0.155,0.0685,0.0571
TCTGCGC,-0.102,-0.195,-0.948,0.297,-0.00305,-0.9,-0.0876,-0.0549,-0.303
TCTAGAA,0.132,-0.00242,0.224,-0.0317,-0.0155,-0.271,0.0992,-0.000635,-0.0462
ACTGAAT,0.0137,-0.099,0.155,0.516,0.159,0.555,0.0411,0.116,0.1
ATTGTAC,-0.0894,-0.163,-0.231,-0.883,-0.0612,-1.09,-0.0624,-0.0286,-0.0832
TAGAGTA,0.00966,-0.261,-0.136,-1.86,-0.145,-0.0985,-2.57,0.0298,0.0507
GGTCCAG,-0.0254,0.0492,0.685,1.44,0.0349,1.65,0.207,0.0577,0.151
CAGCAAG,0.0759,-0.0491,-0.653,-0.359,-0.0296,-0.961,0.226,-0.0166,-0.0418
AGACCAT,0.226,0.282,0.774,1.21,0.152,2.02,0.232,0.285,0.285
ACAACCG,0.0278,0.0977,-0.611,0.0795,0.107,-0.501,0.233,0.0208,0.0173
GCTTTCG,0.00323,-0.0851,-0.772,-0.24,-0.136,-0.939,0.104,-0.0896,-0.11
